# Laboratory results taken from PubChem BioAssay AID504333 (National Center for Advancing Translational Sciences (NCATS), 2011).
# Out of some 360,000 compounds screened, about 16,000 (4.4%) were called active. Inconclusive means that the source gave no clear call. Such entries were picked first, then a sample of the others. The call rests on the fitted dose curve; in most records, active means well fitted inhibition curve with a large enough effect; inconclusive means small, poorly fitted or top-dose-only effect; inactive means no such curve, though single readings can be large or run the other way. Potencies beside an inconclusive call are fits to weak or partial responses and may not hold up.
# Target: Bromodomain adjacent to zinc finger domain protein 2B (Homo sapiens) (UniProt Q9UIF8)
# Test: qHTS Assay for Inhibitors of BAZ2B; further: nearly all actives have a fitted effect of over 60% in size
# Conditions: AlphaScreen BAZ2B-H3K14Ac peptide displacement; activity change, negative = inhibition: at 114 µM (top of the series) unless noted
# From the text: BAZ2B (bromodomain adjacent to zinc finger domain, 2B) belongs to a family of ubiquitously expressed bromodomain containing proteins, which biological function has not yet been elucidated. […] The interaction of BAZ2B with ISWI mediated by the BAZ1 motif has recently been described. […] The protocol is based on the AlphaScreen (PerkinElmer) displacement assay developed by NCGC [5], but uses the peptide ligand Biot-H3K14Ac, a high affinity binding partner for BAZ2B, in an AlphaScreen format. Although AlphaScreen has significant advantages with its utility in a variety of epigenetic target assays, the primary screening data provided in this deposition should be used with caution due to the prevalence of screening artifacts. The top compound concentration tested was 110uM in this assay, which increases number of actives and potential artifacts. An AlphaScreen counterscreen is highly recommended to be run against any putative actives to eliminate non-specific artifacts. Alternatively, one can use other AlphaScreen assays in PubChem to filter out promiscuous hits. Eberharter, A. et al. ACF1 improves the effectiveness of nucleosome mobilization by ISWI through PHD-histone contacts. The EMBO journal 23, 4029-4039. 2004. PMID: 15457208 [2] Jones, M.H. et al. A novel family of bromodomain genes. Genomics 63, 40-45. 2000. PMID: 10662543 [3] Yasgar, et al. Compound Management for Quantitative High-Throughput Screening. JALA. 2008 Apr;13(2):79-89. PMID: 18496600 [4] Inglese, et al. Quantitative high-throughput screening: a titration-based approach that efficiently identifies biological activities in large chemical libraries. Proc Natl Acad Sci. 1;103(31):11473-8. 2006. PMID: 16864780 [5] Quinn et al. A chemiluminescence-based method for identification of histone lysine methyltransferase inhibitors. Mol Biosyst 6(5): 782-8. 2010. PMID: 20567762 [6] Baell,Holloway. New substructure filters for removal of pan assay interference compounds (PAINS) from screening libraries and for their exclusion in bioassays. J Med Chem. 53(7):2719-40. 2010. PMID: 20131845 NIH Molecular Libraries Probe Production Network [MLPCN] NIH Chemical Genomics Center [NCGC] Structural Genomics Consortium (SGC) NIH Grant: 5U54 MH084681-02
# To each well of a 1,536w plate, 2ul of BAZ2B protein (final 50nM) and 1ul biotinylated histone peptide acetylated at Lys14 [b-H3(5-23)K14Ac] (final 50nM) were added in 1x PBS buffer, pH 7.4, containing 0.01% Tween-20, using a nanoliter dispenser. Formation of a protein-peptide complex proceeded at room temperature for 30 min. A Kalypsys pin-tool was employed to transfer 23 nL of library compound solution in DMSO to each well. Following a 30 min incubation of the protein-peptide complex with compounds at room temperature, a mixture of 40 ug/mL each streptavidin-coated donor and nickel chelate acceptor AlphaScreen beads (final 10 ug/mL) were added in a 1ul dispense for a final volume of 4ul. A brief centrifugation followed (1000rpm, 1 min) and were then incubated protected from the light for 20 min at room temperature. Plates were read on an EnVision multilabel plate reader using the 1,536 plate HTS AlphaScreen aperture (excitation time 80 ms, measurement time 240 ms).
# On the % scale 0 is the no-effect control and ±100 the full control effect; potency means the concentration at half of the fitted maximal effect; tags describe the fitted curve by direction and shape.
# UniProt Q9UIF8, sequence (Q9UIF8 whole entry, looked up, the tested form may be a part): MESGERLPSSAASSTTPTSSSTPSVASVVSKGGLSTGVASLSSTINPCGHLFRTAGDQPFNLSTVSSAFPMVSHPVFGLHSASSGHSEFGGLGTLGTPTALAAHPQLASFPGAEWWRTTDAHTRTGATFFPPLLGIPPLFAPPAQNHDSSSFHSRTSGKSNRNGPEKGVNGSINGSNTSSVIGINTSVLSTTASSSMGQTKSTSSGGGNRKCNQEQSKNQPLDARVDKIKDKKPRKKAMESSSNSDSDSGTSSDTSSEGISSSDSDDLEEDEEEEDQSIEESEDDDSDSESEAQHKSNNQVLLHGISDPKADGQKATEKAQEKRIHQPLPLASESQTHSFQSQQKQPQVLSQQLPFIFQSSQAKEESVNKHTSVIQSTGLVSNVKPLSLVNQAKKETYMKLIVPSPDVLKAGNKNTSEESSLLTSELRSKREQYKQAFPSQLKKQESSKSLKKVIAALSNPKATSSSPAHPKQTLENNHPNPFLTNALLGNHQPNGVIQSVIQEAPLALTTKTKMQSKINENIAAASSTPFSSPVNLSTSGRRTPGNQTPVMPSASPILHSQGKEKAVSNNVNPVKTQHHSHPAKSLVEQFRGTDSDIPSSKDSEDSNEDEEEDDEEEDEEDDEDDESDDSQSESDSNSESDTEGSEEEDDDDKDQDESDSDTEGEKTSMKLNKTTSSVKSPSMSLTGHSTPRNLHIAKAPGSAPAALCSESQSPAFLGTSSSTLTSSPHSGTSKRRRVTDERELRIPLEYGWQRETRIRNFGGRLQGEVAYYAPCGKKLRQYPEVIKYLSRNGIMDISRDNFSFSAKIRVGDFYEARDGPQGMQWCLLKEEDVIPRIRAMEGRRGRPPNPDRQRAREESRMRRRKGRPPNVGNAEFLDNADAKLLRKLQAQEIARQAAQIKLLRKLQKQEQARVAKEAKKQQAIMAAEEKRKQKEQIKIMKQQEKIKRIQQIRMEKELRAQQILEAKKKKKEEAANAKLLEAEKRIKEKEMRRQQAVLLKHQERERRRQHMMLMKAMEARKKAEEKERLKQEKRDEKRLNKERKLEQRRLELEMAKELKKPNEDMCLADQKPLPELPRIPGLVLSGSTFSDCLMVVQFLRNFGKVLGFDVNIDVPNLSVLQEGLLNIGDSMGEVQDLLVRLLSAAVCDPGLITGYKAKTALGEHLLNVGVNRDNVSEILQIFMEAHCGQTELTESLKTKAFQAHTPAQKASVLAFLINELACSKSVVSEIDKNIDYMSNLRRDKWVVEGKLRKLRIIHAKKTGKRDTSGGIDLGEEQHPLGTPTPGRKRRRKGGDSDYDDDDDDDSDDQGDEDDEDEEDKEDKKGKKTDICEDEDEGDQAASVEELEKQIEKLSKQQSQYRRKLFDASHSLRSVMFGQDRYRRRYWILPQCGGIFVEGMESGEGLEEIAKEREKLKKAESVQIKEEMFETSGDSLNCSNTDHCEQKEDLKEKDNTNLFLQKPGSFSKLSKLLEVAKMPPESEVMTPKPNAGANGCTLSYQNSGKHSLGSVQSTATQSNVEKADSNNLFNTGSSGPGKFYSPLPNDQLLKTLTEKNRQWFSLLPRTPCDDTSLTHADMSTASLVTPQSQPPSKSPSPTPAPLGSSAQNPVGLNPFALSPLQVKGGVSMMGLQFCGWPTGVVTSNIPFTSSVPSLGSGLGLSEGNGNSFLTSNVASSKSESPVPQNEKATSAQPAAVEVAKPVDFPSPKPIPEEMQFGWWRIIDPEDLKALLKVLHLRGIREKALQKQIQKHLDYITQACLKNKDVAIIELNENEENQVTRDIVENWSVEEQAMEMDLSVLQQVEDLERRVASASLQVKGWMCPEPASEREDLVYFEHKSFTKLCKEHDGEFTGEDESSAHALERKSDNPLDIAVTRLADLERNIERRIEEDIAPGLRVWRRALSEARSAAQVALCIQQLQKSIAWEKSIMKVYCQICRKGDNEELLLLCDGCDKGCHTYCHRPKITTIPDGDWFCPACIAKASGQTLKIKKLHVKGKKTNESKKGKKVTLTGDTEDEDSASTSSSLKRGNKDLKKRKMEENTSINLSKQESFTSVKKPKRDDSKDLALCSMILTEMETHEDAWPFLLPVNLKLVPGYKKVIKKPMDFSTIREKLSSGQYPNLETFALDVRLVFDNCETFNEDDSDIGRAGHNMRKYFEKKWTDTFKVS
Compound,"activity change, negative = inhibition",Potency
COc1cccc(CNC(=O)Cn2c(=O)n3nc(-c4cccc(C)c4)nc3c3ccccc32)c1,inactive: -0.896%,–
O=C(C1CCN(c2nnc(-n3cccc3)s2)CC1)N1CCN(Cc2ccc3c(c2)OCO3)CC1,–,"inconclusive: 56.2 µM [inhibitor, partial curve]"
Cc1c(C(O)CN2CCN(Cc3ccc4c(c3)OCO4)CC2)c2ccccc2n1C (stereo unspecified),–,"inconclusive: 79.4 µM [inhibitor, single point]"
Cc1ccccc1N(C(=O)c1csnn1)C(C(=O)NC1CCCC1)c1ccncc1 (stereo unspecified),inactive: -11.1%,–
CCOC(=O)/C(C#N)=C(C)/C=C1\Sc2ccccc2N1CC,inactive: 4.23%,–
COc1ccc(-c2nnc3ccc(SCC(=O)NCc4ccco4)nn23)cc1,–,"inconclusive: 89.1 µM [inhibitor, single point]"
COc1ccc(NC(=O)C2CCN(C3=NS(=O)(=O)C(c4ccc(C)c(C)c4)=C3C)CC2)cc1OC,inactive: -2.77%,–
COc1ccc(S(=O)(=O)N2CCc3ccccc32)cc1NC(C)=O,inactive: -12.5%,–
Cc1ccc(NC(=O)CNC(=O)c2ccco2)c(Cl)c1,inactive: -38.8%,–
O=C(O)CCc1nn2cc(-c3ccccc3)nc2[nH]c1=O,inactive: 7.16%,–
CSc1nnc(C2CCN(CC(=O)Nc3ccccc3N3CCOCC3)CC2)n1C(C)C,inactive: 1.18%,–
O=C(CN1CCN(S(=O)(=O)c2ccc(F)cc2)CC1)c1ccc(O)c(O)c1,–,"inconclusive: 89.1 µM [inhibitor, single point]"
CCNC(=S)NNC(=O)c1cc(-c2cccnc2)nc2ccccc12,inactive: 5.36%,–
Cc1ccc(S(=O)(=O)NC(CC(=O)NCC2CCCO2)c2ccccc2)cc1 (stereo unspecified),inactive: -13%,–
CCN1CCN(Cc2ccc(NC(=O)c3cc(NC(=O)c4cncc(-c5cccs5)c4)cc(OC)c3)cc2C(F)(F)F)CC1,–,active: 35.5 µM
CCN(CC)c1ccc(NC(=O)CN2C(=O)c3cccnc3Oc3ccccc32)c(C)c1,–,"inconclusive: 35.5 µM [inhibitor, partial curve]"
NC(=O)CSc1nc2scc(-c3ccco3)c2c(=O)n1-c1ccccc1,–,"inconclusive: 89.1 µM [inhibitor, single point]"
O=C(CCCN1C(=O)/C(=C/c2ccccc2Cl)SC1=S)Nc1cccnc1,–,"inconclusive: 35.5 µM [inhibitor, partial curve]"
O=C(CN1C(=O)/C(=C/c2ccco2)SC1=S)Nc1ccc(O)c(C(=O)O)c1,–,active: 44.7 µM
COc1ccc(S(=O)(=O)NCCc2sc(-c3ccccc3)nc2C)cc1OC,inactive: -1.34%,–
O=C(N/N=C/C(Cl)=C\c1ccccc1)c1ccco1,inactive: -11.2%,–
N#Cc1c(SCC(=O)Nc2nc3ccccc3s2)sc2c(O)cc(=O)[nH]c12,–,active: 44.7 µM
C(=N\Nc1cc(N2CCCCC2)ncn1)/c1ccco1,–,"inconclusive: 89.1 µM [inhibitor, single point]"
CCC(=O)Nc1ccc(S(=O)(=O)NCc2cccn2Cc2cccc(C)c2)cc1,–,"inconclusive: 28.2 µM [inhibitor, full curve]"

Compound,"activity change, negative = inhibition",Potency
O=C(O)CCc1ccc(-c2ccc(F)cc2)n1CC1CCCO1 (stereo unspecified),inactive: -5.72%,–
Cc1cc(/C=N/NC(=O)C(=O)NCc2ccccn2)c(C)n1-c1cccc(Br)c1,–,active: 50.1 µM
Cc1ccc(NC(=S)/C(=C(\[O-])c2ccc(F)cc2)[n+]2ccccc2)cc1,–,"inconclusive: 31.6 µM [inhibitor, partial curve]"
NC(=S)NNC(=O)C12CC3CC(CC(C3)C1)C2,inactive: -32%,–
Cc1ccc2cccc(NC(=O)c3ccc(-c4ccc(Cl)cc4Cl)o3)c2n1,inactive: -10.5%,–
O=S(=O)(Nc1cccc(-c2cn3cccnc3n2)c1)c1ccc(-c2ccccc2)cc1,–,"inconclusive: 89.1 µM [inhibitor, single point]"
COc1ccc(NC(=O)Cn2c(-c3ccc(OC)cc3)cn(-c3ccc(C)cc3)c2=O)cc1,–,"inconclusive: 89.1 µM [inhibitor, single point]"
O=C(CC1(O)C(=O)N(Cc2ccccc2)c2ccccc21)c1ccncc1 (stereo unspecified),–,"inconclusive: 89.1 µM [inhibitor, single point]"
Cc1csc2nc(-c3cccc(NC(=O)c4ccc(S(N)(=O)=O)cc4)c3)cn12,inactive: 3.17%,–
COc1ccc([N+](=O)[O-])cc1NCC(=O)Nc1cccc(S(=O)(=O)N2CCCC2)c1,inactive: -19%,–
Cc1ccc(N(C(=O)C2COc3ccccc3O2)C(C(=O)NC2CCCCC2)c2cn(C)nc2C)cc1 (stereo unspecified),–,"inconclusive: 89.1 µM [inhibitor, single point]"
CCOc1ccc(-c2c(C(=O)N/N=C/c3cccs3)nnn2-c2nonc2N)cc1,–,"inconclusive: 79.4 µM [inhibitor, single point]"
COC/C=C/C1=CC2=CC(=O)C(C)(OC(=O)c3cnc4ccccc4n3)C(=O)C2=CN1Cc1ccccc1 (stereo unspecified),–,"inconclusive: 79.4 µM [inhibitor, partial curve]"
CCN(C(=O)Cc1cccs1)c1nnc(-c2cccnc2)s1,–,"inconclusive: 100 µM [inhibitor, single point]"
COc1ccc2cnn(-c3ccc(C)cc3)c(=O)c2c1OC,–,"inconclusive: 100 µM [inhibitor, single point]"
Cc1cc(C)n2cc(CSc3ccc(Br)cc3)nc2n1,–,"inconclusive: 56.2 µM [inhibitor, partial curve, poor fit]"
O=C(CSc1ccsc1[N+](=O)[O-])NCc1ccccc1,–,"inconclusive: 50.1 µM [inhibitor, full curve, poor fit]"
Cc1cccc(NC(=O)NNC(=O)c2c(Cl)c(C)nn2C)c1,inactive: 1.08%,–
Cc1ccc(NC(=O)C2(S(=O)(=O)c3ccc(Cl)cc3)CC2)cc1,inactive: 5.26%,–
Cc1ccc(C(=O)N2c3nc(-c4ccco4)nn3C3(CCCCC3)[C@@H]3CCCC[C@@H]32)cc1,–,"inconclusive: 17.8 µM [inhibitor, full curve, poor fit]"
O=C1C=CC(=O)N1N(c1ccccc1)c1ccccc1,–,active: 31.6 µM
Cc1onc(-c2ccccc2)c1C(=O)N/N=C/c1cc(Br)c(O)c(Br)c1,–,"inconclusive: 79.4 µM [inhibitor, single point]"
Cc1ccc(NC(=O)[C@H](CSCc2ccccc2)N2Cc3ccccc3C2=O)cc1,inactive: -16.7%,–
O=[N+]([O-])c1cccc(Nc2c([N+](=O)[O-])ccc3nonc23)c1,–,"inconclusive: 28.2 µM [inhibitor, single point]"

Compound,"activity change, negative = inhibition",Potency
COC(=O)CSc1ccccc1C(=O)OC,inactive: 8.01%,–
CCn1c(=N)c(C(=O)NCCCOC)cc2c(=O)n3cccc(C)c3nc21,–,"inconclusive: 100 µM [inhibitor, single point]"
CC(C)(CNC(=O)c1cc([N+](=O)[O-])ccc1N1CCC(Cc2ccccc2)CC1)N1CCOCC1,–,"inconclusive: 44.7 µM [inhibitor, partial curve]"
Cc1ccc2c(c1)C(c1ccccc1)N(C(=O)c1ccc(Br)o1)CC(=O)N2 (stereo unspecified),–,"inconclusive: 39.8 µM [inhibitor, partial curve]"
CCc1cccc(C)c1NS(=O)(=O)c1ccc2c(c1)NC(=O)C(C)C(=O)N2 (stereo unspecified),inactive: 5.49%,–
Cc1ccc2c(c1)N(CC(=O)NCCC1=CCCCC1)C(=O)c1cccnc1O2,–,"inconclusive: 89.1 µM [inhibitor, single point]"
Cc1cccc(-n2cnc3c(c2=O)c2nc4ccccc4nc2n3Cc2ccco2)c1,–,"inconclusive: 89.1 µM [inhibitor, single point]"
CN(C)S(=O)(=O)c1ccc(N2CCCC2)c(C(=O)NNC(=O)COc2cccc(F)c2)c1,inactive: -4.05%,–
COc1ccc(NCc2nnc(SCC(=O)Nc3cccc(C)c3)o2)cc1,–,"inconclusive: 44.7 µM [inhibitor, partial curve]"
COc1ccc(N2C(=O)C(CC(=O)Nc3ccccc3)N(Cc3ccc(OC)c(OC)c3)C2=O)cc1 (stereo unspecified),–,"inconclusive: 89.1 µM [inhibitor, single point]"
Cc1ccc(S(=O)(=O)N2CCCC2C(=O)Nc2nccs2)cc1 (stereo unspecified),–,"inconclusive: 89.1 µM [inhibitor, single point]"
CC1=C(C(=O)Nc2cc(C(=O)N(C)Cc3ccccc3)ccc2C)SCCO1,–,"inconclusive: 79.4 µM [inhibitor, single point]"
Cc1nc2sc(C(c3ccco3)N3CCN(C(c4ccccc4)c4ccccc4)CC3)c(O)n2n1 (stereo unspecified),–,"inconclusive: 39.8 µM [inhibitor, full curve]"
CN1CCN(C(=S)Nc2ccc([N+](=O)[O-])cc2)CC1,–,"inconclusive: 89.1 µM [inhibitor, single point]"
CC(NC(=O)C12CC3(C)CC(C)(CC(C)(C3)C1)C2)C(=O)O (stereo unspecified),–,"inconclusive: 89.1 µM [inhibitor, single point]"
CC(=O)c1c(C(C)=O)c(C)n(-c2ccc(C(=O)O)cc2)c1C,inactive: -36%,–
CC(=O)Nc1ccc(S(=O)(=O)NCc2ccc(C)n2C)cc1,–,"inconclusive: 50.1 µM [inhibitor, partial curve]"
CC(=O)N1CCc2c(sc3c2c(=O)n(-c2ccccc2)c(=O)n3Cc2ccccc2Cl)C1,–,"inconclusive: 100 µM [inhibitor, single point]"
CC1(C)Cc2nc3sc4c(NCCO)ncnc4c3cc2CS1,inactive: -20%,–
CC(/C=N/NC(=O)CSc1nc2ccccc2n1C)=C\c1ccco1,–,"inconclusive: 39.8 µM [inhibitor, full curve]"
c1ccc2oc(SCc3cn4ccsc4n3)nc2c1,inactive: -12.3%,–
O=C(c1ccc(C#Cc2ccccc2)o1)N1CCN(c2ccccn2)CC1,–,"inconclusive: 35.5 µM [inhibitor, full curve, poor fit]"
CCOC1=C/C(=C/c2c(N)n3nc(-c4ccccc4)sc3nc2=O)C=CC1=O,–,active: 39.8 µM
